Laboratory results taken from PubChem BioAssay AID1159614 (National Center for Advancing Translational Sciences (NCATS), 2016).
In all, about 45,000 compounds went through this assay and about 65 (0.1%) were called active. Calls follow the shape of the dose curve; as a rule, active = well fitted activation curve with a large enough effect; inconclusive = small, poorly fitted or top-dose-only effect; inactive = no such curve, though single readings can be large or run the other way. The list shows a part of the results.

Target: Galactocerebrosidase (Homo sapiens) (UniProt P54803)
Assay: A Novel Cell-Based Assay to Identify Small Molecules for B -Galactocerebrosidase; also: 0% is about no effect; nearly all actives have a fitted effect of over 65% in size
Settings: 145M-Twi-hGALC-G270D cells (Twitcher mouse brain line with human GALC G270D), HMU-beta-Gal fluorescence, 48 h; series mostly up to 57.5 µM; activation: at the top concentration
Outline: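 Fluorogenic HMU-b-Gal hydrolysis (0.1 mM final, pH 5.2 citrate-phosphate with 1 mg/mL sodium taurocholate; carbonate stop buffer) measures mutant GALC activity after compound treatment of live 145M-Twi Twitcher brain cells stably carrying human GALC-G270D, with wild-type GALC line alongside; activation sought.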

UniProt P54803, sequence (P54803 whole entry, looked up): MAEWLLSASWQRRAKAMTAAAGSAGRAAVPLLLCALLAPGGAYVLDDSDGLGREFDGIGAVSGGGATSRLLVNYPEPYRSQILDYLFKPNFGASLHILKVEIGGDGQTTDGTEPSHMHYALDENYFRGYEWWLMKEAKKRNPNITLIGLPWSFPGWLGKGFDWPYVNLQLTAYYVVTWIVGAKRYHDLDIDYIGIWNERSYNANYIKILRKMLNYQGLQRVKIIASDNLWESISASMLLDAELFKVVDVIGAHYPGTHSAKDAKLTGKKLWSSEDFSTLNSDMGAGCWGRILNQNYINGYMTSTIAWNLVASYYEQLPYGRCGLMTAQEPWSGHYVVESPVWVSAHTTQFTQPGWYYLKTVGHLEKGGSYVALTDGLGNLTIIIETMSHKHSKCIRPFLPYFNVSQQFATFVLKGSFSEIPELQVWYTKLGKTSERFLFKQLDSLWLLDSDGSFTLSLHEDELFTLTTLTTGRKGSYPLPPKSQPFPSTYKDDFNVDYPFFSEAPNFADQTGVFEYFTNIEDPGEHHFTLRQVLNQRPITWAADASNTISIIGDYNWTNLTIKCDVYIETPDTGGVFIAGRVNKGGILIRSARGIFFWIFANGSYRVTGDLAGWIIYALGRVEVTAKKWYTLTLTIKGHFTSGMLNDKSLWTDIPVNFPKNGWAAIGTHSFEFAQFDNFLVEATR

activation, inactive:
CCOc1ccccc1CNS(=O)(=O)c1ccc(-c2cnc(C3CC3)o2)cc1 -35.4%
Cc1ccc(-n2nc(CO)c(C(=O)NCc3cccnc3)n2)cc1C 8.97%
COc1ccc(S(=O)(=O)c2cn(C)c3cc(N4CCCCCC4)c(F)cc3c2=O)cc1 -15.2%
COc1ccc(NC(=O)CSC2=Nc3ccccc3C3=NC(CCC(=O)NC4CCCCC4)C(=O)N23)cc1Cl (centres undefined) -18.5%
COc1ccc(-c2noc(-c3nnn(-c4ccc(C)cc4C)c3C)n2)cc1 -14.4%
COc1ccccc1NC(=O)CSCc1cc(=O)c2cccc(Cl)c2[nH]1 -6.22%
COc1ccc(OC)c(C2CC(=O)Nc3c2c(=O)n(C)c2ncnn32)c1 (centres undefined) -4.86%
COc1ccc(Cl)c2sc(NC(=O)c3ccc(S(=O)(=O)N4CCCC4)cc3)nc12 -19.5%
CCc1ccc2occ(CC(=O)Nc3c(C(=O)c4ccccc4)oc4ccccc34)c2c1 -19.7%
CCOC(=O)c1c(-c2ccccc2)oc2ccc(NS(=O)(=O)c3ccc(C)cc3)cc12 -1.79%
CCN1C(=O)c2ccccc2Sc2ccc(NC(=O)Nc3cc(C)cc(C)c3)cc21 -11.7%
O=C(CSC1=Nc2ccccc2C2=NC(Cc3ccccc3)C(=O)N12)Nc1cccc(Cl)c1 (centres undefined) -9.76%
NCc1ccc(S(N)(=O)=O)cc1 -18%
COc1ccccc1Cn1c(C2CC(=O)N(c3ccccc3OC)C2)nc2ccccc21 (centres undefined) -20.6%
Cc1ccnc(NC(c2cccc(O)c2)c2ccc3ccc(C)nc3c2O)c1 (centres undefined) -8.7%
Cc1ccc(CNC(=O)c2cc3sc(Cl)cc3n2C)cc1 -8.28%
Cc1cccc(CS(=O)(=O)Cc2ccc(C(=O)NCc3ccc(F)cc3)o2)c1 -8.6%
CC(C)CCNC(=O)CCCn1c(=O)c2cccn2c2ccccc21 -13.4%
COc1ccccc1N1CCN(S(=O)(=O)c2cc(C(=O)Nc3ccc(Oc4ccccc4)cc3)ccc2F)CC1 -17.1%
COc1cccc(NC(=O)c2cnc(SCC(=O)N3CCCc4ccccc43)n(C)c2=O)c1 -14.5%
CCOC(=O)c1c(C)oc2ccc(N(C(=O)c3ccncc3)S(=O)(=O)c3ccc(F)cc3C)cc12 -5.66%
Cc1ccc2nc(-c3ccc(Cl)c(NC(=O)COc4ccc([N+](=O)[O-])cc4)c3)oc2c1 -9.24%
O=C(Cn1c(=O)n(-c2ccccc2)c(=O)c2c3c(sc21)CCC3)c1ccc(Br)cc1 -19.4%
Cc1noc(-c2ccc(-c3noc(-c4ccc(Cl)cc4)n3)cc2)n1 -19.4%
CCN(C(=O)c1cc2c(=O)oc3ccccc3c2s1)c1ccccc1F -12.7%
O=C(CN1C(=O)CCc2cc(Br)ccc21)Nc1ccc(OC(F)(F)F)cc1 -11.9%
CCOC(=O)c1ccc(Nc2c(-c3ccc(N(C)C)cc3)nc3nc[nH]n23)cc1 -12.4%
COc1ccccc1NC(=O)CSc1nnc2c(n1)[nH]c1ccccc12 -12.9%
Cc1ccc(C)c(CN2CCCN(Cc3ccccc3C)S2(=O)=O)c1 3.38%
Cc1cc(C)cc(NC(=O)CN2C(=O)c3ccccc3Sc3ccc(C(=O)N4CCCC4)cc32)c1 -7.72%
COc1ccc(Cn2c(=O)n(-c3ccc(C)cc3)c(=O)c3c2c2cc(C)ccc2n3C)cc1 -1.84%
COc1cccc(CNC(=O)c2nn(C)c3c2CSc2ccccc2-3)c1 -4.16%
COc1ccc(NC(=O)c2cnc3cc(C)ccn3c2=O)c(OC)c1 0.47%
CCc1ccc(CNC(=O)c2cc3c(=O)n(CC)c4ccccc4c3s2)cc1 -8.75%
Cc1cccc(Nc2c(-c3cccs3)nc3nc(C)cc(C)n23)c1 -17.8%
O=C(NC(=O)c1ccccc1)Nc1ccc(-n2nc(C(F)(F)F)cc2C(F)(F)F)cc1 -7.23%
COc1ccccc1CNC(=O)CCc1c(C)nc2c(c(C)nn2-c2ccc(C)c(C)c2)c1C -8.75%
CC1CCC(NC(=O)c2ccc3c(c2)N(Cc2ccccc2)C(=O)c2ccccc2S3(=O)=O)CC1 (centres undefined) 5.34%
CCCCn1c(=N)c(S(=O)(=O)c2ccc(Cl)cc2)cc2c(=O)n3cccc(C)c3nc21 -15.1%
CC(C)(C)OC(=O)N1CCC(c2c(C(=O)NCc3ccccc3)cnn2-c2ccccc2)CC1 -15.6%
CCN1CCC[C@H]1CNC(=O)c1c(O)c(Cl)cc(Cl)c1OC -9.6%
CCc1ccc(NC(=O)CSc2nc3c(sc4ccccc43)c(=O)n2CCCOC)cc1 -12.1%
Cc1ccc(CNC(=O)c2cnc(N3CCCCC3)c3ccccc23)cc1 -3.84%
CCOC(=O)CNc1nc2ccccc2n2c(C)nnc12 -15.3%
O=C(c1ccc2c(c1)CCN2S(=O)(=O)c1ccccc1)N1CCN(c2cccc(Cl)c2)CC1 -3.74%
COc1ccc(NC(=O)CN(C)S(=O)(=O)c2ccc3c(c2)CCC(=O)N3)c(OC)c1 -17%
COc1ccc(OC)c(NC(=O)Cn2c(=O)n(CC3CCCO3)c(=O)c3cc(OC)c(OC)cc32)c1 (centres undefined) -5.94%
CCOc1ccccc1CNC(=O)CN1C(=O)CSc2ccc(S(=O)(=O)N3CCOCC3)cc21 -6.09%
O=[N+]([O-])c1ccc(S(=O)(=O)NCc2nc3cccnc3n2Cc2ccccc2Cl)cc1 -10.9%
Cc1cccc(C(=O)N2CCc3cc(CNC(=O)c4ccc(Br)o4)ccc32)c1 -17.9%
CC(C)(C)CC(=O)OCC(=O)[C@@]1(O)CC[C@H]2[C@@H]3CCC4=CC(=O)C=C[C@]4(C)[C@H]3[C@@H](O)C[C@@]21C -4.17%
Cc1ccc(C)c(OCCn2cc(C(=O)c3cccs3)c3ccccc32)c1 -7.91%
Cc1c(C(=O)OCC2CCCCC2)[nH]c2c1C(=O)CC(c1ccc(F)cc1)C2 (centres undefined) -14.9%
COc1ccc(C)cc1NC(=O)Cn1c(=O)nc(-c2ccccc2F)c2cc(Cl)ccc21 -13.6%
COC(=O)c1cc(NC(=O)C2CCCN(S(=O)(=O)c3c(C)n[nH]c3C)C2)cc(C(=O)OC)c1 (centres undefined) -2.71%
O=c1nc2c(-c3ccc(F)cc3Cl)n[nH]n2c2ccccc12 -16.1%
CCOC(=O)c1c(C)[nH]c(CCC(=O)Nc2c(Cl)cc(OC)cc2OC)c1C -6.75%
N#Cc1cccc(Nc2ncnc3c2cnn3-c2cccc(Cl)c2)c1 -12.2%
Cc1ccc(Cl)cc1-n1ncc2c(NC3CCCCC3)ncnc21 -19.7%
Cc1cccc2sc(N3CCN(C(=O)CS(=O)(=O)c4ccc(F)cc4)CC3)nc12 -11%
CCc1ccccc1NC(=O)CN(c1cccc(C)c1C)S(C)(=O)=O -1.03%
CCOC(=O)C1CCCN(S(=O)(=O)c2ccc3c(c2)CCN3C(=O)CC)C1 (centres undefined) -14.8%
O=C(CSc1nncn2c1cc1occc12)Nc1ccccc1C(F)(F)F -12.2%
COc1ccc(CNC(=O)Cn2c(=O)nc(-c3ccccc3F)c3cc(Cl)ccc32)cc1OC -5.22%
CCCc1nc2nc(C)c(NS(=O)(=O)c3ccc(F)cc3)c(=O)n2[nH]1 -21.9%
Cc1cc(C(=O)N2CCN(c3ccc(F)cc3)CC2)c2c(C)nn(-c3cccc(Cl)c3C)c2n1 -12.1%
CCc1ccc(S(=O)(=O)c2cnc3ccc(OC)cc3c2N2CCCC(C)C2)cc1 (centres undefined) -0.105%
CCOC(=O)c1ccc(NC(=O)C(CC)Sc2nnc3c4ccccc4n(C)c3n2)cc1 (centres undefined) -10.5%
Cc1ccc(C)c(NC(=O)Cn2nnc(C(=O)NCCc3ccccc3)c2N)c1 -14.6%
COC(=O)c1cccc(Nc2c(-c3ccc(OC)cc3)nc3nc[nH]n23)c1 -18.7%
CCC1=Nc2cc(C(=O)NCc3ccccc3Cl)ccc2Sc2ccc(C)cc21 -15.5%
Cc1cc(C)c(NC(=O)Cn2c(=O)n(Cc3ccc4c(c3)OCO4)c(=O)c3ccccc32)c(C)c1 4.28%
CC[C@@H]([C@H](C)O)n1ncn(-c2ccc(N3CCN(c4ccc(OC[C@@H]5CO[C@@](Cn6cncn6)(c6ccc(F)cc6F)C5)cc4)CC3)cc2)c1=O -6.93%
COc1ccc(-n2c(=O)c3c(C)c(C)sc3n(CC(=O)NCc3ccc(C)cc3)c2=O)c(OC)c1 -3.96%
O=C(NCc1ccc(F)cc1)C1CCCN(c2ncnc3onc(-c4ccc(F)cc4)c23)C1 (centres undefined) -1.51%
CCOc1ccccc1CNC(=O)c1ccc(-c2nc(CSc3ccc(C)cc3)c(C)o2)cc1 -13.3%
O=C(CSc1nc2c(sc3ccccc32)c(=O)n1CCCC(=O)NC1CCCC1)Nc1ccc(F)cc1 -9.08%
CS(=O)(=O)c1oc(-c2ccc(F)cc2)nc1S(=O)(=O)c1ccc(Cl)cc1 -10.5%
O=C(CSc1cn(CCNC(=O)c2ccccc2F)c2ccccc12)Nc1ccccc1F 13.5%
COc1ccccc1OC(=O)Oc1ccccc1OC -12.9%
Cc1c(NC(=O)CC(C)C)cccc1-c1nc2cccnc2s1 5.23%
COc1cccc(-n2c(SCC(=O)Nc3cccc(Cl)c3)nc3c(oc4ccccc43)c2=O)c1 4%
COc1ccc(/C=C\C(=O)NC2CC(=O)N(c3ccc(F)cc3)C2)cc1OC (centres undefined) -4.87%
CCc1ccc(NCc2cc3ccc(OC)cc3n(CC(=O)Nc3ccc(C(C)C)cc3)c2=O)cc1 -8.01%
Cc1ccc(Nc2c(-c3ccsc3)nc3cccc(C)n23)cc1 -6.89%
COc1ccc(Cl)cc1NC(=O)CSC1=Nc2ccccc2C2=NC(CC(=O)NC3CCCCC3)C(=O)N12 (centres undefined) -18.9%
CC(=O)Nc1ccc(C(=O)O)cc1 -10.4%
CCOC(=O)CNC(=O)c1ccc(-c2nn(C)c(=O)c3ccccc23)cc1 -4.43%
Cc1ccc(NC(=O)Cn2nnc(-c3nc(-c4ccncc4)no3)c2N)c(C)c1 -7.47%
COc1ccccc1NC(=O)C1=C(C)Nc2nc(SCc3ccc(Cl)cc3)nn2C1c1ccccc1Cl (centres undefined) -6.22%
CC(NC(=O)C1CCN(C(=O)c2ccc(-n3ccc4ccccc43)s2)CC1)c1ccccc1 (centres undefined) -12.2%
Cc1ccc(NC(=O)c2ccc3oc(=O)c(S(=O)(=O)c4ccccc4)cc3c2)cc1C -27.4%
COc1cc(C2NC(=O)N(C)C3=C2C(=O)N(c2cccc(Cl)c2)C3)ccc1O (centres undefined) -13.2%
CCOC(=O)c1c(NC(C)=O)c2c3c(sc2n1Cc1ccc(Cl)cc1)CCCC3 -7.63%
